The campaign covered roughly 310,000 compounds. About 14,000 (4.5%) showed an effect of 50% or more. The effect is printed as a negative number. This is one part of the list.
molecular target: human ether-à-go-go-related gene (hERG) potassium channel (human, UniProt Q12809); assay: primary screen, population patch clamp on CHO cells stably expressing hERG
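Further: peak tail current of the secondary pulse compared with the same well before compound.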

Chain of human ether-à-go-go-related gene (hERG) potassium channel (Q12809 whole entry, looked up): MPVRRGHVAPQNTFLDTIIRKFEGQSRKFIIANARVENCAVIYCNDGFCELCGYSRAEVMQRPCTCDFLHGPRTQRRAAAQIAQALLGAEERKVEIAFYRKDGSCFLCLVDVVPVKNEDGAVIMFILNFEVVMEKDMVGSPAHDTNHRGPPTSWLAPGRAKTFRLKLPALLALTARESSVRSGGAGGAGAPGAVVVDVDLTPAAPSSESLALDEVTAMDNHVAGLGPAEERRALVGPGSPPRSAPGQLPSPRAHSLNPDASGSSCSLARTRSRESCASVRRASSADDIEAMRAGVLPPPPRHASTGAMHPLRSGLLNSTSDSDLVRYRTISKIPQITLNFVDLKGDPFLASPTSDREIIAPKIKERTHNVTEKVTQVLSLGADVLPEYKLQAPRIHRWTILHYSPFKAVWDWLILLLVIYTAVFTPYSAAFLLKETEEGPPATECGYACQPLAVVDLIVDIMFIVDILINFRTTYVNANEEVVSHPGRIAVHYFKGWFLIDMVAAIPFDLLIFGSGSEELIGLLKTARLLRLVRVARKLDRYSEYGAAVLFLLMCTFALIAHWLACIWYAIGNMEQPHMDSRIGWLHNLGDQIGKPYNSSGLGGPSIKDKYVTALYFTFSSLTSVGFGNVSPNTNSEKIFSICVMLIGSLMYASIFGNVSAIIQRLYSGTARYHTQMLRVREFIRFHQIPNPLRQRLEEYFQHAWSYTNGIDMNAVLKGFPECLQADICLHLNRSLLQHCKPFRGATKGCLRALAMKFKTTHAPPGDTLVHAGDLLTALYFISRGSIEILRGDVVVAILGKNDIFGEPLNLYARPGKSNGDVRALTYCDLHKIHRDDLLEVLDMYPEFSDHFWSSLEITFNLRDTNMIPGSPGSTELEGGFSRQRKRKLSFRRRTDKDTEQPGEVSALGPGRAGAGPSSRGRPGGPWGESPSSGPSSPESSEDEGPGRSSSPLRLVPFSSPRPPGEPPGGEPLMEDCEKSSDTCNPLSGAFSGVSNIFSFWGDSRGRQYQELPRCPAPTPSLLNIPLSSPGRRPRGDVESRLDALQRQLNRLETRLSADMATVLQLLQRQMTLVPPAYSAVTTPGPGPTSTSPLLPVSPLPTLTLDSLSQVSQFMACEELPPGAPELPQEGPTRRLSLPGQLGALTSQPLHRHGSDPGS

Structure (SMILES) | hERG current change (%, negative = inhibition) at 10uM [%]
CCOc1cc(/C=N\Nc2ccc([N+](=O)[O-])cc2)ccc1OCC(=O)Nc1ccc(C)c(C)c1 | 12.9
NNC(=O)Cn1c(-c2ccccc2)cc2ccccc21 | 15.2
COC(=O)c1ccc(Nc2nnc(-c3ccc(C)c(S(=O)(=O)NCC4CCCO4)c3)c3ccccc23)cc1 (centres unmarked) | -6.16
COC(=O)c1cccc(-n2nnnc2SCC(=O)Nc2cc(C)on2)c1 | 0.797
CCC(C)(C)NC(=O)C(c1ccc(O)cc1)N(C(=O)Cn1nnc2ccccc21)c1ccc(NC(C)=O)cc1 (centres unmarked) | 7.17
O=C(O)C1C2CCC(C2)C1C(=O)N1CCCC1 (centres unmarked) | 19.6
COc1cccc(OC)c1C(=O)OCC(=O)Nc1cccnc1Cl | 4.27
c1ccc(Cc2nn3c(C4COc5ccccc5O4)nnc3s2)cc1 (centres unmarked) | -8.76
COC(CNC(=O)c1cn(C)c2ccc(S(=O)(=O)N(C)C3CCCCC3)cc2c1=O)OC | -21.5
CC(C)C(=O)Nc1nnc(SCC(=O)Nc2ccc3c(c2)OCCO3)s1 | 6.24
CCn1ncc(Br)c1C(=O)Nc1ccc(OC(F)(F)F)cc1 | -5.96
c1ccc(Nc2c3c(nc4ncnn24)CCC3)cc1 | -54.5
Cc1nn(CC(=O)N2CCCc3ccccc32)c(C)c1[N+](=O)[O-] | 4.33
CN(C)c1ccc(C(=O)N2CCCC2)cc1 | 13.1
Cc1nc2c3cc(F)ccc3n(CCN3CCCCC3)c2s1.Cl | -69.9
O=C(CNC(=O)c1cccs1)N=Nc1c(O)[nH]c2ccc([N+](=O)[O-])cc12 | 5.11
CC1=C(C(=O)Nc2ccc(C(=O)NCCC(C)C)cc2)SCCO1 | -2.09
CC(C)[C@H](NS(=O)(=O)c1ccccc1)C(=O)OCC(=O)NC(=O)c1cccn1C | -10.4
COc1ccc2[nH]c(=O)c(COC(=O)c3ccco3)cc2c1 | 17.6
CCc1ccc(NC(=O)CSc2nnc(-c3n[nH]c4ccccc34)n2-c2ccccc2)cc1 | 41
CCn1c(SCC(=O)Nc2cccc(O)c2)nc2c1c(=O)n(C)c(=O)n2C | -1
COc1ccc(N(C(=O)c2ccncc2)S(=O)(=O)c2cccc([N+](=O)[O-])c2)cc1 | -27.5

Structure (SMILES) | hERG current change (%, negative = inhibition) at 10uM [%]
COc1ccc([N+](=O)[O-])cc1N(CC(=O)NCCSc1ccccc1)S(C)(=O)=O | -30.4
CCc1ccc(-n2c(SCC(=O)Nc3ccc(C(=O)O)cc3)nnc2-c2ccncc2)cc1 | -11.1
COc1cc(NC(=O)CSc2nc(C3CC3)nc3ccccc23)cc(OC)c1 | 11.9
COC(=O)c1sc(NC(=S)NC(=O)c2cccc(Br)c2)nc1C | -5.4
O=C(Nc1ccccn1)C1CCN(c2ncnc3c2nc2n3CCCCC2)CC1 | -7.75
CCn1c(CSc2ncccn2)nnc1SCC(=O)N1CCc2ccccc21 | -16.1
COc1ccc(C2CC(C(F)(F)F)n3nc(C(=O)N(C)Cc4cn(C)nc4C)c(Cl)c3N2)cc1 (centres unmarked) | -14.7
CCOC(=O)c1ccc(N2Cc3ccccc3C2=N)cc1 | -61.3
Clc1ccc(COn2c(-c3ccc(Cl)cc3)nc3ccccc32)cc1 | 1.24
CCC(C)NC(=O)COC(=O)c1ccc(Cl)cc1O (centres unmarked) | 50.7
CCC(=O)Nc1c(C#N)c2nc3ccccc3nc2n1-c1ccccc1C | 25.2
CN1CCN(C(=O)C2=C[C@@H](C(C)(C)C)C[C@@H](OCc3ccc(CO)cc3)O2)CC1 | 1.2
COc1ccc(N2CC(NC(=O)N3CCN(C(=O)c4ccco4)CC3)CC2=O)cc1OC (centres unmarked) | 5.5
COc1ccc(N2C(=O)C3CCCN3C2c2cccc(OC)c2)cc1 (centres unmarked) | -1.59
Cc1ccc(/C=C2/NC(=O)N(c3ccccc3)C2=O)o1 | -1.61
O=C(Cn1nc2sc3ccccc3n2c(=O)c1=O)c1cccs1 | 7.63
Cn1ccnc1C(O)c1ccco1 (centres unmarked) | 4.09
CCCCSc1nc(CCC)cc(=O)[nH]1 | -7.39
O=[N+]([O-])c1ccc(Sc2ccc(F)cc2)nc1 | 11.2
COc1cccc(NC(=O)CSc2ccc(-c3ccco3)nn2)c1 | -48.1
O=C(CCNC(=O)c1ccc([N+](=O)[O-])cc1)Nc1ccc(Cl)c(S(=O)(=O)N2CCOCC2)c1 | -66.2
O=C1CCCC2=C1C1c3ccccc3C(=O)N1c1ccc(C(=O)c3ccccc3)cc1N2 (centres unmarked) | -47.6

Structure (SMILES) | hERG current change (%, negative = inhibition) at 10uM [%]
CC(=O)N1CCc2cc(S(=O)(=O)NCc3ccc(C)cc3)ccc21 | 6.24
COCCCN1CN=C(NS(=O)(=O)c2ccc(C)cc2)NC1 | 13.3
C#CCSC1=C(C#N)C(c2cccs2)C(C(=O)OCC)=C(C)N1 (centres unmarked) | 12.6
COc1ccc(C2(CNC(=O)c3ccccc3)CCOCC2)cc1 | 12.1
CC(C)CCNC(=O)NC(=O)COC(=O)c1cc(S(=O)(=O)N2CCOCC2)ccc1N1CCCCC1 | 1.53
CC(=O)NCC1COc2ccccc2O1 (centres unmarked) | -4.37
CC1CCCCN1C(=O)COC(=O)c1cccc(NS(=O)(=O)c2ccccc2)c1 (centres unmarked) | 0.629
CCOC(=O)CC(NC(=O)CCc1c(C)nc2ncnn2c1C)c1ccc(OC(C)C)cc1 (centres unmarked) | -8.3
Cc1ccc(OCC(=O)N(Cc2ccccc2)C(C)(C)C)c([N+](=O)[O-])n1 | -17.7
O=C1OC(c2ccc(Cl)cc2)=N/C1=C\N1CC2CC(C1)c1cccc(=O)n1C2 (centres unmarked) | -72
Nc1ccnc(C(F)(F)F)c1C(=O)c1ccccc1 | 5.02
CC(=O)NS(=O)(=O)c1cccnc1Nc1cccc(Cl)c1C | 0.163
CCOC(=O)C1(Cc2ccccc2)CCN(Cc2ccc(C3CCCCO3)s2)CC1 (centres unmarked) | -18.8
CC1CCN(C(=O)C2CCCN(S(C)(=O)=O)C2)CC1 (centres unmarked) | 8.17
COc1ccccc1NC(=O)N1CCN(c2ccc3nncn3n2)CC1 | -23.1
CC(C)CC(=O)Nc1nnc(SCC(=O)NCc2ccc3c(c2)OCO3)s1 | 17.7
Fc1ccccc1CSc1nnc(-c2cccnc2)o1 | 15.2
C#Cc1ccc([C@H]2C=C(C(=O)N3CCOCC3)O[C@@H](OCC)[C@@H]2CCCO)cc1 | 6.65
CCOc1nc(NC2CCCC2)nc(N2CCC(C)CC2)n1 | 1.15
CC(=O)N1c2ccc(S(=O)(=O)N3CCC(C(=O)NCc4ccccc4)CC3)cc2CC1C (centres unmarked) | -9.09
COc1ccc(NC(=O)CC2SC(=NCC3CCCO3)NC2=O)cc1 (centres unmarked) | 0.267
CCCCC(=O)Nc1ccc(C(=O)NNC(=S)NC(=O)c2ccccc2[N+](=O)[O-])cc1 | 16.3

Structure (SMILES) | hERG current change (%, negative = inhibition) at 10uM [%]
Cc1cc(C)c(CN2CCN(C(=O)Cn3ccc(NC(=O)OCc4ccccc4)nc3=O)CC2)c(C)c1 | -5.55
CCOC(=O)c1c(S(=O)(=O)NCCc2ccc(OC)c(OC)c2)c(C)n(C)c1C | 4.97
Cc1[nH]n(-c2ccc(Br)cc2)c(=O)c1C=Nc1ccc(S(=O)(=O)Nc2nccs2)cc1 | 20.1
Cc1cc([N+](=O)[O-])ccc1NC(=O)c1cccc(NC(=O)C(C)C)c1 | 15.1
CCOC(CCNC(=O)c1cn(CC(C)C)c(=O)c2c1c1ccccc1n2C)OCC | 7.61
CC1=CC(C)(C)N2C(=O)C3(C(C#N)=C(N)Oc4cc(O)ccc43)c3cccc1c32 (centres unmarked) | 15.3
CC(C)(C)OC1NS(=O)(=O)OCC1NCOC(Cl)(Cl)Cl (centres unmarked) | 9.18
COc1ccc(/C=C2\N=C(c3ccccc3)NNC2=O)cc1 | 2.07
O=C(NCCc1nc(-c2ccccc2)no1)c1ccccc1 | -3.86
CN1CCN(S(=O)(=O)c2ccc(NC(=O)c3ccco3)cc2)CC1 | -13.4
COc1ccccc1NC(=O)CCC(=O)OCc1cccc([N+](=O)[O-])c1 | 22.4
CC(C)(C)C(=O)Cn1c(=O)n(CC2CCCO2)c(=O)c2ccccc21 (centres unmarked) | -11.5
Cc1ccc(CNc2ncc(-c3ccccc3)n2C)o1.O=C(O)C(=O)O | -37
O=C(CC1SC2=NCCN2C1=O)Nc1ccc(Cl)cc1 (centres unmarked) | 6.97
Cc1cc(Cl)ccc1OCC(=O)N(Cc1cccs1)C1CCS(=O)(=O)C1 (centres unmarked) | -25.9
O=S(=O)(Cc1ccc(Cl)cc1)Nc1ccc(Cl)cn1 | 21.5
COc1ccc(S(=O)(=O)Oc2cccc(C(=S)N3CCOCC3)c2)cc1 | -14.7
S=C(NCc1ccccc1)N1CCCCC1 | -1.03
CC(=O)Nc1ccc(/C(C)=N/NC(=O)c2ccc(CN3CCOCC3)cc2)cc1 | 25.2
CCOC(=O)C1CCCN(c2c(N3CCN(c4ccccn4)CC3)c(=O)c2=O)C1 (centres unmarked) | -55.5

From paper PMC4336329 (PLoS ONE, 2015)
